Some of the results follow.
biological target: T1, OsWOX13 (Oryza sativa, UniProt Q5QMM3 1-267); assay: protein-binding microarray (RPBM); PBS, 2% BSA, 51.3 ng/ul salmon testes DNA, 50 uM zinc acetate, 200 nM TF, 25 C, 1 h; high values mean tight binding; conditions: protein: recombinant; tags: N-terminal polyhistidine and DsRed monomer fusion (pET32a); label: CyDye5-dUTP incorporated in the synthesized complementary strand; 3' TTTTT single-stranded linker to array surface; dsDNA, one strand shown
T1 sequence: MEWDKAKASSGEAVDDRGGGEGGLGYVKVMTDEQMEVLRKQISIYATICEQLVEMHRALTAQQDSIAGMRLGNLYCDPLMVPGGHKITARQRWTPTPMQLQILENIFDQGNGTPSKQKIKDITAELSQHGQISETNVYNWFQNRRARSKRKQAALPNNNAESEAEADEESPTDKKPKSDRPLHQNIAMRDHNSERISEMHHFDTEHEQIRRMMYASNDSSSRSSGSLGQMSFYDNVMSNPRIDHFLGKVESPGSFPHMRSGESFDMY
Outline: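 An Axon 4000B scanner gave the binding signal as per-feature fluorescence intensity in arbitrary units. This followed washing of a custom Agilent array that had been incubated for 1 h at 25 °C with 200 nM protein in PBS, 2% BSA, salmon testes DNA and 50 µM zinc acetate. The proteins were transcription factors fused at the N-terminus to polyhistidine and DsRed, expressed in E. coli BL21-CodonPlus and purified on Ni–NTA.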

| Sequence | binding signal |
| --- | --- |
| TCACTAACAGATGTACCACTGTTTTATAAATTCTAAAATGCGGAGTCACCTAGTGCAG | 8690 fluorescence intensity (a.u.) |
| TCTCGAATTAATTAGGGTATCATATTATTCTCATATGAAACGGAGTCACCTAGTGCAG | 15000 fluorescence intensity (a.u.) |
| TTGATTCAATCAACATATTTGATTCACAAATTTAGTTGCTCGGAGTCACCTAGTGCAG | 50100 fluorescence intensity (a.u.) |
| TATGGATCTAGATTTTCAATTACATTGATAACATTTGAATCGGAGTCACCTAGTGCAG | 3300 fluorescence intensity (a.u.) |
| GCTTAAACAGCAAGATAGTCATGATTAGGCCAAAGATATCCGGAGTCACCTAGTGCAG | 6570 fluorescence intensity (a.u.) |
| ACCAAATTTAGTCGTTAACAGTACTTTATGTACTTAGAGACGGAGTCACCTAGTGCAG | 6830 fluorescence intensity (a.u.) |
| AATTTTGCCTGATGAATTGAGAATTGACTCGTAACTTGGACGGAGTCACCTAGTGCAG | 4150 fluorescence intensity (a.u.) |
| CATCAAATTTGACTAAGTTTAATGACAAATATAATAATATCGGAGTCACCTAGTGCAG | 3460 fluorescence intensity (a.u.) |
| TTTTATGTTATATATATATAATTATTTGCAAGAAATTCATCGGAGTCACCTAGTGCAG | 3590 fluorescence intensity (a.u.) |
| CTTTAATTAATTTAACTGCCATTATTATGTACTTTCAGAGCGGAGTCACCTAGTGCAG | 63200 fluorescence intensity (a.u.) |
| GCACGATTAATTATATATTAATAACTATTATATATTTAAACGGAGTCACCTAGTGCAG | 6940 fluorescence intensity (a.u.) |
| ATGTATATTAATTACTAGCCAAATGGTTAGCATGATTACTCGGAGTCACCTAGTGCAG | 10900 fluorescence intensity (a.u.) |
| CTAGATGATTGGCTATCATCACCTGTTCACAATCTTATGTCGGAGTCACCTAGTGCAG | 61900 fluorescence intensity (a.u.) |
| GACTTTATTTCAATAATTTGAATTTGAATTTCAAATTATGCGGAGTCACCTAGTGCAG | 8160 fluorescence intensity (a.u.) |
| TCTATATATGACTGACATATGGATCCTTTGACATGTAGATCGGAGTCACCTAGTGCAG | 3330 fluorescence intensity (a.u.) |
| GAAAGCAATAAATTAGAGTGATAAATACCGGGAGAGTGTGCGGAGTCACCTAGTGCAG | 6500 fluorescence intensity (a.u.) |
| ATATTAATTTGGTATTGGAGTATACCACTGAGCAATTGCACGGAGTCACCTAGTGCAG | 14700 fluorescence intensity (a.u.) |
| TATTCTGCGTTTAATTGAGCACATGCATATGTATGTCGCACGGAGTCACCTAGTGCAG | 3290 fluorescence intensity (a.u.) |
| ATTGCAAATTTGTTGGTGTACATGAACATGAAATTCTAGTCGGAGTCACCTAGTGCAG | 4010 fluorescence intensity (a.u.) |
| CAAACTGAGATTATAATGCTTAAGGGTGAGTTCGAGGGATCGGAGTCACCTAGTGCAG | 3970 fluorescence intensity (a.u.) |
| CGTGGAGAGGGGAGGGGAGGGAGAGGGAGACCGGGCGCATCGGAGTCACCTAGTGCAG | 3920 fluorescence intensity (a.u.) |

| Sequence | binding signal |
| --- | --- |
| CACAATTCTCCAATCATATACCGACTGTTGTACGTATATTCGGAGTCACCTAGTGCAG | 8830 fluorescence intensity (a.u.) |
| TGGTTGATGAGATTGATGAAGTGGTGGAGATGTTGACGAACGGAGTCACCTAGTGCAG | 37100 fluorescence intensity (a.u.) |
| GTACCCATACCCATATAATTGACTTGTAGTATTTATAGTTCGGAGTCACCTAGTGCAG | 3160 fluorescence intensity (a.u.) |
| ATTTGATTATTTCCTAAGCCCTGTTTCCTTCGTTCTTAAGCGGAGTCACCTAGTGCAG | 40600 fluorescence intensity (a.u.) |
| TTTTATTTGTACCGATTTCTGATTTGCACAGACATGTTTCCGGAGTCACCTAGTGCAG | 5380 fluorescence intensity (a.u.) |
| CTTGATTCCCTGCAGATTTCCATGCGCAGCCAGCATCTTGCGGAGTCACCTAGTGCAG | 4090 fluorescence intensity (a.u.) |
| GGAGATTAATTACAAGGATTAAATAGAAAACGGGTAGAGGCGGAGTCACCTAGTGCAG | 42300 fluorescence intensity (a.u.) |
| ATAGCCGTTTTGATTGATTCCTAAGTGATCCAAAGCTTGACGGAGTCACCTAGTGCAG | 30900 fluorescence intensity (a.u.) |
| ACAAACACTGATTAAATTAAATTAAACACTGAGAAAATTCCGGAGTCACCTAGTGCAG | 9580 fluorescence intensity (a.u.) |
| GTATAGGGGAGAGGGTGGGCGGGTGATCACTGGGTGGGTGCGGAGTCACCTAGTGCAG | 4700 fluorescence intensity (a.u.) |
| GCTAATAAACTGGCCTGTAACCCGCGCATTTCGCACCCATCGGAGTCACCTAGTGCAG | 12100 fluorescence intensity (a.u.) |
| CTAATCACTACAATTTCAATCCCCTTCAATTTCCCTCTCTCGGAGTCACCTAGTGCAG | 3820 fluorescence intensity (a.u.) |
| ATTAATTTGAGACGAAGCTCATGATTTTCTAACAAAATATCGGAGTCACCTAGTGCAG | 4060 fluorescence intensity (a.u.) |
| CATGATTTGATAATATGGTGCTACAGTAAATTTTGCTAGTCGGAGTCACCTAGTGCAG | 48100 fluorescence intensity (a.u.) |
| TCCTTTTCAATATTAGATTGGTTTATTGTAGTACGAAGGGCGGAGTCACCTAGTGCAG | 8130 fluorescence intensity (a.u.) |
| ATAGGAATCAGGTGCCAATTAACAACCCACGATTAGATGGCGGAGTCACCTAGTGCAG | 9740 fluorescence intensity (a.u.) |
| TGAGAGCGTTTGTAGGAAGTTTAATTGACAATAGATTAGTCGGAGTCACCTAGTGCAG | 5010 fluorescence intensity (a.u.) |
| CATCTCACCAGTTACGTTAATTAATGGTAACAGCGCAGCACGGAGTCACCTAGTGCAG | 11800 fluorescence intensity (a.u.) |
| TGATGATGCCTGATTGGTACTCCTAGCCCTAGGAAGAAAACGGAGTCACCTAGTGCAG | 11400 fluorescence intensity (a.u.) |
| TTTCATGCATGTGTCAATTTATTTGATAACCATAGTCCACCGGAGTCACCTAGTGCAG | 5710 fluorescence intensity (a.u.) |
| ATTGGATTATTTGAGGTCGGGGAGGGGTACTTCAATGAATCGGAGTCACCTAGTGCAG | 4410 fluorescence intensity (a.u.) |

— PMC7819943, “Rice protein-binding microarrays: a tool to detect cis-acting elements near promoter regions in rice”
